Laboratory results reported in the supplement of paper PMC10369915.
The other results are listed elsewhere or left out. Cut-off read from the data, not from the text of the source: active = 3.2 or more and inactive = the rest. Only a few entries rise above the background.

molecular target: SHP2 C-SH2 domain E139D; test: enrichment score (SH2-bound / input frequency) (ratio); bacterial display of known human phosphotyrosine sites (pTyr-Var adds point mutants) read by sequencing; higher = stronger binding; tyrosines were phosphorylated by kinases first; details: peptide library: pTyr-Var
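Note: displayed peptides selected on beads carrying the immobilized SH2 domain, with library peptides lacking any tyrosine serving as negative controls.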

Enrichment score, active:
CTTFHYNFMCN [TP53_Y234_I232F_YF] 3.28
CTTIHYNYMCN [TP53_Y234] 5.36
CTTIQYNYMCN [TP53_Y234_H233Q] 4.42
CTTIHYNYRCN [TP53_Y234_M237R] 3.43

Enrichment score, inactive:
SVVVPYEPPEA [TP53_Y220_V225A] 0.669
SVVVPHEPPEV [TP53_Y220_Y220H] 0.789
STTIHYNYMCN [TP53_Y234_C229S] 0.823
CTTIHYNYMSN [TP53_Y234_C238S] 1.33
CTTIHYNYMHN [TP53_Y234_C238H] 1.72

molecular target: SHP2 C-SH2 domain wild-type; test: as above; details: peptide library: pTyr-Var

Enrichment score, active:
CTTIHYNYMCN [TP53_Y234] 6.27
CTTIQYNYMCN [TP53_Y234_H233Q] 3.57
CTTIHYNYRCN [TP53_Y234_M237R] 3.53

Enrichment score, inactive:
SVVVPYEPPEA [TP53_Y220_V225A] 0.601
CTTFHYNFMCN [TP53_Y234_I232F_YF] 2.44
SVVVPHEPPEV [TP53_Y220_Y220H] 0.802
STTIHYNYMCN [TP53_Y234_C229S] 1.05
CTTIHYNYMSN [TP53_Y234_C238S] 1.46
CTTIHYNYMHN [TP53_Y234_C238H] 2

molecular target: SHP2 N-SH2 domain L43F; test: as above; details: peptide library: pTyr-Var

Enrichment score, inactive:
SVVVPYEPPEA [TP53_Y220_V225A] 0.761
CTTFHYNFMCN [TP53_Y234_I232F_YF] 3.14
CTTIHYNYRCN [TP53_Y234_M237R] 3.07
SVVVPHEPPEV [TP53_Y220_Y220H] 0.843
STTIHYNYMCN [TP53_Y234_C229S] 0.801
CTTIHYNYMSN [TP53_Y234_C238S] 1.71
CTTIHYNYMHN [TP53_Y234_C238H] 1.43

Enrichment score, active:
CTTIHYNYMCN [TP53_Y234] 4.05
CTTIQYNYMCN [TP53_Y234_H233Q] 4.02

molecular target: SHP2 N-SH2 domain T42A; test: as above; details: peptide library: pTyr-Var

Enrichment score, active:
CTTIHYNYMCN [TP53_Y234] 3.63
CTTIQYNYMCN [TP53_Y234_H233Q] 3.56

Enrichment score, inactive:
SVVVPYEPPEA [TP53_Y220_V225A] 0.573
CTTFHYNFMCN [TP53_Y234_I232F_YF] 2.67
CTTIHYNYRCN [TP53_Y234_M237R] 2.66
SVVVPHEPPEV [TP53_Y220_Y220H] 0.602
STTIHYNYMCN [TP53_Y234_C229S] 0.944
CTTIHYNYMSN [TP53_Y234_C238S] 1.12
CTTIHYNYMHN [TP53_Y234_C238H] 1.07

molecular target: SHP2 N-SH2 domain T52S; test: as above; details: peptide library: pTyr-Var

Enrichment score, active:
CTTIHYNYMCN [TP53_Y234] 4.26
CTTIQYNYMCN [TP53_Y234_H233Q] 3.62
CTTIHYNYRCN [TP53_Y234_M237R] 3.48

Enrichment score, inactive:
SVVVPYEPPEA [TP53_Y220_V225A] 0.667
CTTFHYNFMCN [TP53_Y234_I232F_YF] 2.54
SVVVPHEPPEV [TP53_Y220_Y220H] 0.843
STTIHYNYMCN [TP53_Y234_C229S] 0.912
CTTIHYNYMSN [TP53_Y234_C238S] 1.56
CTTIHYNYMHN [TP53_Y234_C238H] 1.5

molecular target: SHP2 N-SH2 domain wild-type; test: as above; details: peptide library: pTyr-Var

Enrichment score, active:
CTTIHYNYMCN [TP53_Y234] 3.25
CTTIQYNYMCN [TP53_Y234_H233Q] 3.44
CTTIHYNYRCN [TP53_Y234_M237R] 3.36

Enrichment score, inactive:
SVVVPYEPPEA [TP53_Y220_V225A] 0.718
CTTFHYNFMCN [TP53_Y234_I232F_YF] 2.57
SVVVPHEPPEV [TP53_Y220_Y220H] 0.847
STTIHYNYMCN [TP53_Y234_C229S] 0.975
CTTIHYNYMSN [TP53_Y234_C238S] 1.2
CTTIHYNYMHN [TP53_Y234_C238H] 1.75
